Test results: PubChem BioAssay AID504832 (National Center for Advancing Translational Sciences (NCATS), 2011)
The campaign covered roughly 310,000 compounds. About 18,000 (5.8%) were called active. The inconclusive results got no clear call from the source; some entries with a clear call stand among them for comparison. Calls come from the whole dose curve; as a rule, active = well fitted inhibition curve with a large enough effect; inconclusive = small, poorly fitted or top-dose-only effect, or another doubt; inactive = no such curve, though single readings can be large or run the other way. No potency is given beside an inconclusive call; the fits are too rough.

experiment: Primary qHTS for delayed death inhibitors of the malarial parasite plastid, 48 hour incubation; conditions: P. falciparum luciferase growth in erythrocytes; series mostly up to 28.7 µM
Method in brief: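 Luciferase-expressing P. falciparum in infected erythrocytes (2% hematocrit, 0.1% parasitemia final) in RPMI 1640/0.5% Albumax were exposed to compound for 48 hours at 37 C, 5% CO2; growth read as luminescence.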
Potency is the fitted concentration of half-maximal effect; tags give direction and shape of the fitted curve.

SMILES | Potency
Cc1nn(CC(O)Cn2c3c(c4ccccc42)CCN(C)C3=O)c(C)c1Br (stereo unspecified) | inconclusive [inhibitor, single point]
CC1CCc2[nH]c3ccc(C(=O)N4CCCC(C(F)(F)F)C4)cc3c2C1 (stereo unspecified) | inconclusive [inhibitor, partial curve, poor fit]
COc1ccc(-c2cnc(N)nc2-c2ccc(OCc3ccccc3)cc2O)cc1 | inconclusive [inhibitor, single point]
Cc1ccc(NC(=S)Nc2ccc(F)cc2)cc1C | inconclusive [inhibitor, single point]
Cc1cc(NC(=O)c2ccc(N3CCCC3)c([N+](=O)[O-])c2)no1 | inconclusive [inhibitor, partial curve]
CCOC(=O)C1CCN(C(=O)Cc2ccc(OC)c(OC)c2)CC1 | inconclusive [inhibitor, single point]
Cc1cccc(CN2CCc3c([nH]c4ccccc34)C2CC(C)C)n1 (stereo unspecified) | active: 9.28 µM
CC1SC(C)C(=O)N(CC(=O)Nc2ccc([N+](=O)[O-])cc2)C1=O (stereo unspecified) | inactive
Cc1cccc(C)c1OCC(=O)N(Cc1ccc(Cl)cc1)C1CCS(=O)(=O)C1 (stereo unspecified) | inconclusive [inhibitor, partial curve]
O=C1CCC(/C=C/c2ccccc2)=NN1Cc1ccccc1 | inactive
CCN(CC)S(=O)(=O)c1ccc(N2CCCCC2)c(NC(=O)c2ccncc2)c1 | inconclusive [inhibitor, single point]
O=C(Nc1cccnc1)c1cc2c(ccc3ccccc32)o1 | inactive
CCOC(=O)c1c(NC(=O)CN2C(=O)NC3(CCCCC3C)C2=O)sc(C)c1C (stereo unspecified) | inactive
COc1ccccc1CC(NC(C)=O)C(=O)NC1CCN(C(=O)c2cccc(Cl)c2)CC1 (stereo unspecified) | inconclusive [inhibitor, full curve, poor fit]
O=C(Nc1ccc2c(c1)OCO2)c1ccc(Cl)c(S(=O)(=O)N2CCOCC2)c1 | inconclusive [inhibitor, partial curve]
COc1ccc(OC)c(-c2csc(N(Cc3ccco3)C(=O)c3ccco3)n2)c1 | inconclusive [inhibitor, single point]
COc1cccc(C(=O)Nc2ccccc2-c2ccccc2)c1 | inconclusive [inhibitor, single point]
O=C(NCc1ccc(OC(F)(F)F)cc1)C1CC(c2c(Cl)cccc2Cl)=NO1 (stereo unspecified) | active: 1.31 µM
CC1CCCC(C)N1S(=O)(=O)c1ccc(S(=O)(=O)N2CCOCC2)cc1 (stereo unspecified) | inconclusive [inhibitor, single point]
COC(=O)C1=C(N)Oc2cc(C)n(CCN3CCOCC3)c(=O)c2C1c1cccnc1 (stereo unspecified) | inactive
CCC/C(O)=C1\C(=O)CC(C)(C)CC1=Nc1ccccc1O | inconclusive [inhibitor, partial curve, poor fit]
COc1ccccc1N(C(=O)c1cncc(Br)c1)c1nc(-c2ccc(C)cc2)cs1 | inconclusive [inhibitor, single point]

SMILES | Potency
O=C(Nc1ccc(Br)cc1)C1CCCN(C2=NS(=O)(=O)c3ccccc32)C1 (stereo unspecified) | inconclusive [inhibitor, single point]
CCc1nnc(NC(=O)CSc2nc3c([nH]c4ccccc43)c(=O)n2CCOC)s1 | inactive
CCCCN(C)CCCNC(=O)c1cn(CC)c2ccc(S(=O)(=O)N3CCc4ccccc4C3)cc2c1=O | inconclusive [inhibitor, partial curve]
CN(n1cnc2ccccc2c1=O)S(C)(=O)=O | inconclusive [inhibitor, full curve, poor fit]
CCCc1cc(=O)oc2cc(OC(C)C(=O)NC3CC(C)(C)NC(C)(C)C3)ccc12 (stereo unspecified) | inconclusive [inhibitor, single point]
Cc1ccc(-n2ncc3c(=O)[nH]c(SCC(=O)N4CCOCC4)nc32)cc1 | inactive
O=C(Nc1ccc2c(c1)N(S(=O)(=O)c1cccs1)CCC2)c1c(F)cccc1Cl | inconclusive [inhibitor, partial curve, poor fit]
COc1ccc(NC(=O)CN(C)C(=O)c2cc(-c3ccco3)nc3ccccc23)cc1 | inconclusive [inhibitor, partial curve, poor fit]
Cc1cc(Oc2ncccc2[N+](=O)[O-])c2cc(Cl)ccc2n1 | inactive
S=C(NCc1ccc(Cl)cc1)Nc1ccccc1 | inactive
CN(CC(=O)Nc1c(Cl)cccc1Cl)C(=O)c1cc2ccccc2cc1O | inconclusive [inhibitor, single point]
COc1ccc(NC(=O)CCN2CCN(C/C=C/c3ccccc3)CC2)cc1 | inconclusive [inhibitor, full curve, poor fit]
CCCNC(=O)c1c(O)c2cccc3c2n(c1=O)CCC3 | inconclusive [inhibitor, single point]
Cc1cccc(OCC(=O)NCCN2CCOCC2)c1 | inconclusive [inhibitor, single point]
CCOc1ccccc1-c1nnc(SCC(=O)NC2CC3CCC2C3)n1CC (stereo unspecified) | inconclusive [inhibitor, partial curve]
CCN(CC)CCCN(Cc1cc2cc3c(cc2[nH]c1=O)OCO3)C(=S)Nc1ccccc1OC | inconclusive [inhibitor, partial curve, poor fit]
Cc1cc2ccccn2c1C(C[N+](=O)[O-])c1c(F)cccc1Cl (stereo unspecified) | inconclusive [inhibitor, single point]
COc1ccc(OCC(=O)Nc2c(C(=O)N(CCN(C)C)Cc3ccco3)oc3ccccc23)cc1 | inconclusive [inhibitor, single point]
Cc1ccc2c(c1)CCCN2C(=O)c1ccco1 | inconclusive [inhibitor, partial curve]
COc1ccc(NC(=O)C(C)Sc2nnc3c4c(nc(-c5ccc(OC)cc5)n23)CC(C)(C)OC4)cc1 (stereo unspecified) | active: 2.94 µM
O=C(Nc1ccc(-c2cn3c(n2)SCC3)cc1)c1ccc2c(c1)OCO2 | inconclusive [inhibitor, full curve, poor fit]
CCCCCCN(C(=O)CCCCCN1C(=O)NC(c2ccc(-c3ccccc3)cc2)C(C(=O)OCc2ccccc2)=C1C)C(C)C(=O)NCCCC (stereo unspecified) | inconclusive [inhibitor, full curve]

SMILES | Potency
COC(=O)[C@H](Cc1ccccc1)NC(=O)NC(C)CCc1ccccc1 (stereo partly specified) | inconclusive [inhibitor, partial curve, poor fit]
COc1cc(OC)c2ccc(=O)oc2c1C(CCN1CCN(c2ccccc2)CC1)c1ccc2c(c1)OCO2 (stereo unspecified) | active: 11.7 µM
Cc1cccc(-c2noc(CN(C)C(=O)c3ccco3)n2)c1 | inactive
CCN(CC)c1ccc(S(=O)(=O)N2CCCCC2)cc1NC(=O)C1=COCCO1 | active: 13.1 µM
Cn1c(=O)c2[nH]c(-c3ccccc3Cl)c(O)c2n(C)c1=O | active: 4.65 µM
CCN1CCc2c(sc(NC(=O)c3ccc(S(=O)(=O)N(CC)c4ccccc4)cc3)c2C(N)=O)C1 | inconclusive [inhibitor, single point]
O=C(O)CNC(=O)CC1S/C(=N/N=C/c2ccccc2O)NC1=O (stereo unspecified) | inconclusive [inhibitor, single point]
NC(=O)C1CCN(C(=O)c2ccc3nc(-c4ccccc4)c(-c4ccccc4)nc3c2)CC1 | active: 10.4 µM
CCOC(=O)c1nn(-c2ccccc2)c(C(=O)OCC)c1N | inconclusive [inhibitor, single point]
COc1ccccc1OCC(=O)c1[nH]c(C)c(C(C)=O)c1C | inactive
O=C(N/C(=C\c1ccco1)C(=O)N1CCCC(CO)C1)c1ccccc1 (stereo unspecified) | inactive
COc1cccc(Nc2nnc(SCC(=O)N(CC(C)C)CC(C)C)s2)c1 | inconclusive [inhibitor, partial curve]
Oc1ccc(/C=N/N=C/c2ccc(O)cc2)cc1 | inconclusive [inhibitor, single point]
O=C(NC(=S)Nc1cc(C(F)(F)F)ccc1N1CCOCC1)c1sc2ccccc2c1Cl | active: 2.08 µM
O=C(NCc1ccncc1)c1ccc(Cl)c(S(=O)(=O)N2CCCCC2)c1 | inconclusive [inhibitor, single point]
COc1ccc(C(=O)N(Cc2ccccc2)c2ccc(C)cc2)cc1S(=O)(=O)N1CCOCC1 | inconclusive [inhibitor, partial curve, poor fit]
O=C(O)CCC(=O)NCC(=O)c1ccc(F)cc1 | inactive
Cc1ccc(NC(=O)N2CCCCCC2)c(C)c1 | inactive
CCOC(=O)CSc1nc2ccccc2c(=O)n1C | inconclusive [inhibitor, single point]
CNC(=S)N(Cc1cccs1)Cc1cc2ccc(OC)cc2[nH]c1=O | inconclusive [inhibitor, single point]
Cc1cc2nc(-c3ccc(SCC(=O)Nc4ccc(S(=O)(=O)N5CCCC5)cc4)nc3)[nH]c2cc1C | inconclusive [inhibitor, partial curve, poor fit]
COc1ccc(Nc2cc(C)nc(N3CCN(C(=O)c4ccc5c(c4)OCO5)CC3)n2)cc1 | inconclusive [inhibitor, partial curve]
